The other results are listed elsewhere or left out. At the low end of the ranking the order means little.

Among the data in PMC5836133 are binding signal values, retold here.

For the assay, the system named is T1, GST-NbGlk1(82-244).
T1 sequence: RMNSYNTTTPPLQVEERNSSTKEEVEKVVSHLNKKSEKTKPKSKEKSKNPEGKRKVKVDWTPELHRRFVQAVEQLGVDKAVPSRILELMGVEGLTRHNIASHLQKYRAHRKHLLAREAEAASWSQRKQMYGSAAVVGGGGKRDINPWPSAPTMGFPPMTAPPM
The assay can be described thus: protein-binding microarray.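 Also: rank-based score ranging −0.5 to +0.5 with E above 0.45 taken as significant binding.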 To be noted: NbGlk1 is a Golden2-like transcription factor of Nicotiana benthamiana; high values mean tight binding; most listed sequences are background and not binding sites; double strand, one strand shown.
AACATTTC displayed a binding signal of 0.176 E-score.
Consider AAGGAGGA, for which the binding signal is -0.205 E-score.
For the sequence ATCCCCGC, the binding signal amounted to 0.2 E-score.
Turning to AAGTGAAC, the binding signal is -0.219 E-score.
Regarding ACTACAGG, the binding signal is -0.104 E-score.
As for ACCAGTCG, the binding signal was -0.255 E-score.
ATACCCGC displayed a binding signal of 0.082 E-score.
Consider ACTTGGCG, for which the binding signal is -0.0276 E-score.
The same measure for ACTAAGCC: -0.124 E-score; for ATTATTTC: 0.219 E-score.
On to CAGCGTTC, for which the binding signal was -0.283 E-score.
AATTGATG: the binding signal is -0.00418 E-score.
In the case of AATGGTGG, the binding signal was -0.136 E-score.
Regarding ACGTGACA, the binding signal is -0.0339 E-score.
As for ATCGAGCG, the binding signal was 0.00861 E-score.
As to ACTGCCGC, the binding signal is -0.123 E-score.
On to ACTGCTAT, for which the binding signal was -0.0283 E-score.
Consider ATGCGACC, for which the binding signal is -0.224 E-score.
Regarding ACACGGAC, the binding signal was -0.102 E-score.
In the case of AACAGCAG, the binding signal is -0.145 E-score.
To CACCCACA belongs -0.123 E-score.
AGGGGAAT returned a binding signal of 0.32 E-score.
Turning to AACAACCA, the binding signal was -0.191 E-score.
In turn, AGAGAAAT returned a binding signal of 0.241 E-score.
In turn, ATCGTCTC came in with a binding signal of 0.173 E-score.
As to AAGGCCGT, the binding signal was -0.302 E-score.
In the case of AACAAGTA, the binding signal amounted to 0.00994 E-score.
In the case of ATTGCAGC, the binding signal is 0.12 E-score.
Sequence AATTAGTA showed a binding signal of 0.109 E-score.
On to CAAATGAG, for which the binding signal is 0.003 E-score.
To ATCTGGAC belongs 0.346 E-score; to ATATGTCA, 0.14 E-score.
The same measure for AGGCCTGA: -0.195 E-score; for ACTAAACG: 0.0337 E-score; for ATCTTCAG: 0.3 E-score.
ACCCGAAC: the binding signal was -0.221 E-score.
Take AGCTCTAG: the binding signal is -0.145 E-score.
The same measure for AGGGCGAA: -0.209 E-score; for ATCGTCGA: 0.221 E-score; for ACAGGAAT: 0.217 E-score.
On to CACTTGCG, for which the binding signal was -0.105 E-score.
In the case of AGTCGACA, the binding signal stood at 0.0557 E-score.
To AACCTAAT belongs 0.0548 E-score.
The same measure for CAAGAAGA: -0.0827 E-score.
In the case of AGCTTGGG, the binding signal was -0.206 E-score.
The same measure for AGCGCGAG: -0.0785 E-score.
To ATACCAGG belongs -0.0165 E-score; to ATCCTCAG, 0.231 E-score.
ACGTAACG came in with a binding signal of 0.0139 E-score.
ATGTTAGA had a binding signal of 0.121 E-score.
For CAAAAAAC, the binding signal worked out at 0.182 E-score.
Take ACGCCTCC: the binding signal is -0.188 E-score.
ACGAAGTA showed a binding signal of 0.00245 E-score.
As to AGGCACGG, the binding signal was -0.196 E-score.
Take ACTTATCA: the binding signal was -0.0734 E-score.
In the case of ATGTGACG, the binding signal is -0.121 E-score.
In the case of AGGATAGG, the binding signal was -0.0549 E-score.
Consider CAACCCGG, for which the binding signal is -0.178 E-score.
In turn, AACATTAA showed a binding signal of 0.101 E-score.
On to AGGCTGTG, for which the binding signal is -0.255 E-score.
With ACAAACCC, the binding signal was -0.171 E-score.
Turning to AGTAAAGG, the binding signal was -0.0993 E-score.
For the sequence AATCACGA, the binding signal is 0.339 E-score.
On to AATTAGCG, for which the binding signal was -0.0295 E-score.
To AAGAACAT belongs 0.00421 E-score; to AGCCCGTA, -0.156 E-score.
In the case of AGATCAAC, the binding signal came out at 0.106 E-score.
Sequence AACTACTT displayed a binding signal of 0.0621 E-score.
The sequence CAGATACG returned a binding signal of 0.391 E-score.
To AACCGGTC belongs -0.168 E-score; to ATATTACA, 0.281 E-score.
ATTTCACA displayed a binding signal of 0.304 E-score.
To CAAGTATG belongs 0.101 E-score.
On to AATGACGG, for which the binding signal is -0.0554 E-score.
AGATCAAT: the binding signal amounted to 0.175 E-score.
AGCAGGAC: the binding signal was -0.165 E-score.
To AGGTCGAT belongs -0.119 E-score; to AATTAACC, -0.0987 E-score; to ATTTGACA, 0.157 E-score.
In turn, ATGAGTAC gave a binding signal of 0.0213 E-score.
For the sequence AGAGTATA, the binding signal turned out to be 0.159 E-score.
Take AAGTGGTG: the binding signal was -0.047 E-score.
Regarding AAGACGCA, the binding signal was -0.104 E-score.
As for CACTTTTA, the binding signal stood at 0.0879 E-score.
In the case of AGTCAGTG, the binding signal was -0.0774 E-score.
Regarding CAAGAAAA, the binding signal was -0.0381 E-score.
With AAGAGATT, the binding signal came out at 0.4 E-score.
To ACCGCGCT belongs -0.109 E-score.
Regarding ACCTCCCC, the binding signal is -0.154 E-score.
In the case of ACAACTGT, the binding signal was -0.0865 E-score.
For the sequence AGTCGGAG, the binding signal is -0.168 E-score.
The same measure for ATCTGTCC: 0.12 E-score; for AAGGCGGA: -0.0824 E-score; for CAAAATGG: -0.0703 E-score.
As for ATGCAGCG, the binding signal was -0.0864 E-score.
Turning to AGCCACCA, the binding signal was -0.137 E-score.
To ATCACTTG belongs 0.125 E-score; to AGCTTTCG, -0.154 E-score; to ACGATGCT, 0.00773 E-score.
On to CAATGCAG, for which the binding signal was 0.0004 E-score.
In the case of AATCCCGT, the binding signal is 0.366 E-score.
Turning to AGCCGTCA, the binding signal is -0.173 E-score.
As to AATTGCCG, the binding signal stood at 0.0396 E-score.
As for AATCAACA, the binding signal stood at 0.259 E-score.
In the case of CACGTCGG, the binding signal is -0.277 E-score.
As to AACGCGAC, the binding signal is -0.104 E-score.
With ACCCGGGA, the binding signal is -0.302 E-score.
To ATGATTAG belongs 0.0672 E-score.
Regarding ACAAATGC, the binding signal is -0.167 E-score.
To AGGGTTTA belongs -0.113 E-score.
